According to PubChem BioAssay AID248 (DTP/NCI, 2004):
Toxic doses and inconclusive results are not listed.

Tested on: L1210 leukemia ip in BDF1 mice, survival T/C
Experiment: NCI In Vivo Anticancer Drug Screen. Data for tumor model L1210 Leukemia (intraperitoneal) in B6D2F1 (BDF1) mice
Conditions: endpoint: mean survival time, higher = longer survival
Summary of the method: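 Transplanted-tumor mice were given test agent; controls received vehicle only. Survival readings from the two groups were divided (treated over control).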

For `COc1cc2c(c(OC)c1OC)-c1ccc(OC)c(=O)cc1[C@@H](N)CC2`, the T/C (dose: 0.25 mg/kg/injection, schedule: Q12HX024 (ip), vehicle: water) was 104 % of control, the T/C (dose: 0.5 mg/kg/injection, schedule: Q01DX001 (ip), vehicle: saline) was 100 % of control and the T/C (dose: 0.5 mg/kg/injection, schedule: Q12HX016 (ip), vehicle: water) was 119 % of control. The T/C (dose: 0.5 mg/kg/injection, schedule: Q12HX024 (ip), vehicle: water) was 117 % of control, the T/C (dose: 1.0 mg/kg/injection, schedule: Q01DX001 (ip), vehicle: saline) was 102 % of control and the T/C (dose: 1.0 mg/kg/injection, schedule: Q01DX009 (ip), vehicle: water) was 117 % of control. For the same molecule, the T/C (dose: 1.0 mg/kg/injection, schedule: Q12HX008 (ip), vehicle: water) was 110 % of control, the T/C (dose: 1.0 mg/kg/injection, schedule: Q12HX016 (ip), vehicle: water) was 100 % of control and the T/C (dose: 1.0 mg/kg/injection, schedule: Q12HX024 (ip), vehicle: water) was 95 % of control. The T/C (dose: 1.5 mg/kg/injection, schedule: Q01DX015 (ip), vehicle: clinical formulation) was 109 % of control, the T/C (dose: 1.5 mg/kg/injection, schedule: Q01DX015 (ip), vehicle: saline) was 124 % of control and the T/C (dose: 2.0 mg/kg/injection, schedule: Q01DX001 (ip), vehicle: saline) was 102 % of control. For the same molecule, the T/C (dose: 2.0 mg/kg/injection, schedule: Q01DX009 (ip), vehicle: water) was 110 % of control, the T/C (dose: 2.0 mg/kg/injection, schedule: Q04DX003 (ip), vehicle: water) was 111 % of control and the T/C (dose: 2.0 mg/kg/injection, schedule: Q12HX016 (ip), vehicle: water) was 91 % of control. For the same molecule, the T/C (dose: 4.0 mg/kg/injection, schedule: Q01DX001 (ip), vehicle: saline) was 98 % of control, the T/C (dose: 4.0 mg/kg/injection, schedule: Q01DX009 (ip), vehicle: water) was 102 % of control and the T/C (dose: 4.0 mg/kg/injection, schedule: Q04DX002 (ip), vehicle: water) was 102 % of control. For the same molecule, the T/C (dose: 4.0 mg/kg/injection, schedule: Q04DX003 (ip), vehicle: water) was 104 % of control, the T/C (dose: 8.0 mg/kg/injection, schedule: Q01DX001 (ip), vehicle: saline) was 102 % of control and the T/C (dose: 8.0 mg/kg/injection, schedule: Q01DX001 (ip), vehicle: water) was 111 % of control. For the same molecule, the T/C (dose: 8.0 mg/kg/injection, schedule: Q04DX002 (ip), vehicle: water) was 100 % of control, the T/C (dose: 8.0 mg/kg/injection, schedule: Q04DX003 (ip), vehicle: water) was 113 % of control and the T/C (dose: 9.0 mg/kg/injection, schedule: Q01DX015 (ip), vehicle: clinical formulation) was 114 % of control. For the same molecule, the T/C (dose: 9.0 mg/kg/injection, schedule: Q01DX015 (ip), vehicle: saline) was 168 % of control, the T/C (dose: 16.0 mg/kg/injection, schedule: Q01DX001 (ip), vehicle: water) was 111 % of control and the T/C (dose: 16.0 mg/kg/injection, schedule: Q04DX002 (ip), vehicle: water) was 100 % of control. The T/C (dose: 32.0 mg/kg/injection, schedule: Q01DX001 (ip), vehicle: water) was 113 % of control, the T/C (dose: 32.0 mg/kg/injection, schedule: Q04DX002 (ip), vehicle: water) was 105 % of control and the T/C (dose: 128.0 mg/kg/injection, schedule: Q01DX001 (ip), vehicle: water) was 114 % of control.
